Here are results for 35 compounds from ChEMBL document CHEMBL5308541, “MAIP: An Open-Source Tool to Enrich High-Throughput Screening Output and Identify Novel, Druglike Molecules with Antimalarial Activity” (ACS Med Chem Lett, 2023).

By % Inhibition is commonly meant the change of the read-out against control, counted positive when it falls.

The whole screen tested about 150,000 compounds, of which about 540 (0.36%) showed an effect of 50% or more. This is one part of the list.

In the assay the test system is Plasmodium falciparum. The assay can be described thus: Primary screen in NF54 nanoGlo assay, in single point, at 2uM, 72h; a lower Z score goes with more inhibition. Format: functional, Erythrocyte. Particulars: timepoint 72 hour.
With `Cn1ccn2ncc(C(=O)NCC3CCN(C(=O)c4cc5ccccc5[nH]4)CC3)c12`, the “% Inhibition” value was -9% and the Z score turned out to be 1.37.
Turning to `CNc1cc([C@H]2C[C@@H](NC3CC(C)(C)NC(C)(C)C3)C2)ncn1`, the “% Inhibition” value worked out at 11% and the Z score is -1.95.
Take `CC(C)Oc1cccc(-c2cc(C3CCNCC3)c(C#N)c(N)n2)c1`: the “% Inhibition” value was -7% and the Z score came out at 1.08.
As for `CC1CC(CNc2ccnc(NCC3CCOC(C)C3)n2)CCO1` (stereo not given), the “% Inhibition” value was found to be 20% and the Z score is recorded as -3.06.
Regarding `CCCN1CCC(N2CCN(Cc3cn(C)nc3C(F)F)CC2)CC1`, the “% Inhibition” value was found to be 0% and the Z score is reported as 0.08.
As for `Cc1c(C(=O)NC2CCCCC2)nnn1-c1cccc2c1CCN(c1ccc(C#N)cn1)C2`, the “% Inhibition” value was 4% and the Z score is -0.7.
For `Cc1sc(CNC(=O)c2cccc3ncccc23)nc1-c1ccc(Cl)cc1`, the “% Inhibition” value is listed as -5% and the Z score amounted to 0.92.
Consider `Cc1nc2n(n1)CC(NC(=O)N1CCC(Nc3ccc4nccn4n3)C1)CC2` (stereo not given), for which the “% Inhibition” value is -7% and the Z score turned out to be 1.27.
The matching figures for `O=C(c1cccc(-c2ccc3c(c2)OC(F)(F)O3)c1)N1CCCNCC1`: 10% and -2.07.
The matching figures for `O=C(Nc1ccc(N2CCC(NCc3cc4ccccc4[nH]3)CC2)cc1)C1CCCC1`: -5% and 0.8.
On to `C[C@@H](C(=O)OC(C)(C)C)N(C)c1ccn(C)n1`, for which the “% Inhibition” value is recorded as -3% and the Z score stood at 0.51.
On to `CCc1ncc(-c2c(-c3ccccc3)ncn2CCCCc2ccccn2)cn1`, for which the “% Inhibition” value is -12% and the Z score is 2.32.
As for `C[C@@H](C(=O)N1CCCN(c2cc(N)ncn2)CC1)N1CCCCCC1`, the “% Inhibition” value worked out at 7% and the Z score is recorded as -1.41.
As to `CCC1CN(c2ccc(C#N)c(N3CCN(CC(C)O)C(CC)C3)n2)CCN1CC(C)O` (stereo not given), the “% Inhibition” value is reported as -2% and the Z score is given as 0.44.
Take `CC(C)Oc1ccc(Cl)cc1CN1CC(O)C(Cc2ccnc3ccccc23)C1` (stereo not given): the “% Inhibition” value is given as 0% and the Z score is on record as -0.05.
With `COc1ccc2ncc(Cl)c(N3CCC(NCCO)CC3)c2c1`, the “% Inhibition” value is reported as 0% and the Z score came to 0.08.
In the case of `O=C(c1cc2cc(F)ccc2[nH]1)N1CCN(c2ncnc3sccc23)CC1`, the “% Inhibition” value was 0% and the Z score is -0.03.
As for `COCCO[C@H]1CCN(C(=O)c2ccc3nnn(C)c3c2)C1`, the “% Inhibition” value worked out at 0% and the Z score is listed as -0.06.
With `CN(C)C1CCN(c2cc(N3CCC(N(C)C)C3)ncn2)C1` (stereo not given), the “% Inhibition” value is -2% and the Z score came to 0.32.
As to `Cc1cccc2ncnc(N[C@H]3Cc4cncn4C3)c12`, the “% Inhibition” value is reported as -6% and the Z score was 1.3.
As for `CCCN(CC(F)F)C(=O)c1sccc1S(=O)(=O)C(F)F`, the “% Inhibition” value came to 6% and the Z score is -1.16.
The matching figures for `Cc1ccccc1[C@H]1CCN(CCNc2nc(N)nc3[nH]cnc23)C1`: 8% and -1.22.
Turning to `COc1nsc(C(=O)N(Cc2ccc(F)cc2)C(C)C)c1Br`, the “% Inhibition” value is reported as 2% and the Z score is listed as -0.35.
The matching figures for `Cc1cc(NCc2cccc(Cn3cncn3)c2)nc2c(C(C)C)cccc12`: -4% and 0.66.
As to `O=C(NCc1cc2cc(F)ccc2s1)c1c[nH]c2ccccc2c1=O`, the “% Inhibition” value is 1% and the Z score is -0.22.
As for `COc1cccc(-c2cc(C(=O)N3CCN(CCn4ccnc4)CC3)[nH]n2)c1`, the “% Inhibition” value is -2% and the Z score stood at 0.5.
Turning to `COc1ccc(Nc2cc(C)nc(NCCNC(=O)COc3nccc(C)n3)n2)cc1`, the “% Inhibition” value is 5% and the Z score is on record as -0.96.
Regarding `O=C(NCc1ccc2ncccc2c1)N1CCN(CC2CCOCC2)CC1`, the “% Inhibition” value is on record as -14% and the Z score is recorded as 2.81.
As to `CNC(=O)CCc1cccc(NC(=O)NC2(COC)CCCC2)c1`, the “% Inhibition” value was determined as 1% and the Z score is given as -0.2.
The matching figures for `O=C(c1cncc(N[C@H]2CCCN(CC3CCCCC3)C2)n1)N1CCCC1`: -1% and 0.19.
The matching figures for `Fc1ccc(C2(c3nc(-c4ncccn4)no3)CCC2)c(F)c1`: 8% and -1.21.
For the compound `C[C@H](NC(=O)CN(C)C1CCNCC1)c1nc(-c2ccncc2)no1`, the “% Inhibition” value is on record as -11% and the Z score was 2.46.
Turning to `COc1cc(CC(=O)N2CC3(CN(C)C(=O)O3)C2)ccn1`, the “% Inhibition” value is listed as -9% and the Z score was 1.33.
In the case of `Nc1nnc(CCCNc2nccc(-c3ccncc3)n2)s1`, the “% Inhibition” value is listed as -9% and the Z score is reported as 1.91.
`CC(O)C1CCN(c2cc(N3Cc4ccccc4-c4ccccc4C3)ncn2)C1` (stereo not given): the “% Inhibition” value stood at 2% and the Z score is listed as -0.28.
